Experimental data from paper PMC10726135.
The other results are listed elsewhere or left out. At the low end of the ranking, values are background and their order means little. The protein was read in a cell extract, so binding may be indirect.

Molecular target: T1, HNF4alpha8 (COS-7 nuclear extract) (UniProt P41235-5)
T1 sequence: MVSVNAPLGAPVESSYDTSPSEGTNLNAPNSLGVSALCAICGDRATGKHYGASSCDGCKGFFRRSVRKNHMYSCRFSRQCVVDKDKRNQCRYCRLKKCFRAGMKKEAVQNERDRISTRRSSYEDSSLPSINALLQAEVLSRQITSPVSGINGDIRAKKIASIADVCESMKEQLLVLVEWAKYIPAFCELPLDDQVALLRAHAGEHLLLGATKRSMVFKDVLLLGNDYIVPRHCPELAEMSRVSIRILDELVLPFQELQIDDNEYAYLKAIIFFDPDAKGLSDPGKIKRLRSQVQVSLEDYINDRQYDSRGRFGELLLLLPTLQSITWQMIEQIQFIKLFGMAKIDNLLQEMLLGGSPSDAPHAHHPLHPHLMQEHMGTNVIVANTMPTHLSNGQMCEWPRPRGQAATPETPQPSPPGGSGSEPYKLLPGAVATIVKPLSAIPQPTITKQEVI
Experiment: protein-binding microarray
Details: COS-7 nuclear extract on double-stranded Agilent 4x180k PBM; binding buffer, salt, pH and temperature not given; high values mean tight binding; double strand, one strand shown; sequences stand for … in …GCCTAGGGAGATTAGAGTATCGGTCGA

| Sequence | binding signal (log2 normalized intensity) |
| --- | --- |
| GGGTGCAAACTCACCTGGAGAAGCAGAAGC | -1.39 |
| CCTGTCCAAAGGTCATCTGTCACTCTAGAT | 6.02 |
| GTATATTCCCTTTGTATGGCAGGGGTTAAC | 2.38 |
| AGGAGACAGGCTTTGAGCATCGCTGGACTC | 2.93 |
| ACGAGACGGTGTCCCTGGCCAATCCCAGGG | -1.36 |
| GGCTATACAATTCCAGCAAGGATGGGGGCA | 0.827 |
| AGCAAAGGTCATGCATAGAAGTATGTCTGG | 1.29 |
| TAGACAGCTTGAGAAACAGGGGCTTAAACC | -1.4 |
| AAGAGCTGAGGAAGTGCTGACCTTTGGTCT | 7.88 |
| GGCGGCGGCCTCTGGGAAATGTAGTTCCGG | -0.689 |
| GGTCAACACAATCTGATAGTTGATTGATTG | 0.975 |
| CAGGCAGAGGGTTAACCCCTATTAACCAAA | 0.886 |
| CATACTTCAGCAATTTCTTAGTAAACACTG | -1.2 |
| TTGATTTAACATTTGTGATCTGGCACAAAT | 0.366 |
| CTCCTGGTGTGCTGTTAGCTGAAGGACGTC | 0.726 |
| CGGTCACTACAACAACGGCGGCCCAGTCAA | -1.32 |
| CTGGCGTCCCCCACCTGGAATGTGCTCCCG | 3.76 |
| TGTTTGCATTAGTTATATCTTACCTCCTTC | 0.703 |
| CCCTGGAGCACAGAAGGAGGGCGGGGAGTC | -1.25 |
| TCTTCAAGGAGGTGAACTTTGAGACTATCC | 5.2 |
| TTGGAAAAAGCAGGCAACCAAGGGTACACA | -1.14 |
| GTCAGGGGCAGGTGGAGGTGGGATACTGGG | -1.15 |
| AGAGTCCAAATTCCTTGGTATGGCAAATAA | 2.16 |
| GGAGGGGTGCGAAGGTCGAGGCCAGGGATT | 3.05 |

| Sequence | binding signal (log2 normalized intensity) |
| --- | --- |
| GTGTTATCTCTGATGCCCTTTGGCCTTTCT | 7.1 |
| AGAGCGTCCCACCTGAGGCCAAGCAGCTGT | -1.26 |
| ATGTTTTGTTATCTGTGCCACAGGTATTTC | 1.12 |
| AGCATAAGGTTTCCATCAAGCCTTTGACTC | -1.1 |
| ACCGGGATTTTGTTGGGGAACTTTGCCCGG | 5.21 |
| AAAGAGCAGCTAGCTCCAGTTGGTTGCTAA | -1.44 |
| ATTAAAAGATAAAACATTGTACCTTCTACC | 1.54 |
| TGGCCAATCCCAGGGTCAGAGGTCGCGAGG | 4.67 |
| CAAACAATCCTCCCACCTCAGCATCCCAAG | 0.544 |
| CCAGGTCTCCTCCACAGAGCACAGGATCCA | -1.24 |
| TGGGTTCAAAGGTCAGAAAAAGCTGACGCC | 7.25 |
| GTCAGTGTCCAGCACACCTTTTTTTCATGC | 0.77 |
| GGCGTCACCAACCAGCCCTCGAGTGAGGGG | 2.08 |
| CACTCCATTTACAGACCAATCCATTGACCT | 3.76 |
| AGCCAGGCCAACACCAAGCAAGCTCTGCAA | -1.23 |
| GCCAAACCAGGTCATGCATTCTGCTTACTA | -1.31 |
| CACAAGCTGTGTGGCATGGTGTTTTGCCTT | 1.27 |
| CTGGAAATGTTTGTAGGGACTTTGACCCCT | 10.4 |
| CCCCCAACAGGGCTCCTGTTCAGCATAGTC | 2.5 |
| AGAAAGGGGTCAGCAAAAATAGCCAAAATA | -1.27 |
| TAGTGCAAGAATCCAAGAATTCGATTGTTT | -1.28 |
| TCCGTCTATAAATACGCCTCGCCCGAGCTG | -1.33 |
| TCCGGGGTCACGCGCGTGTGGATACGATGA | 1.51 |
| TCAGCTGACATTGGTGGAATCTGAACTTTT | 3.83 |

| Sequence | binding signal (log2 normalized intensity) |
| --- | --- |
| CTGGGGGCAAAGGTTCACTTTGGGGAAGTC | 4.6 |
| ACAGGCCCTCTGATATTGGGTGAGTGTTAG | 0.729 |
| TCTTATCTGCCTAGGCATTTGGCTGTCTCA | -1.32 |
| CTGGGGACCTTTATATGTCCACCTTATCTA | 0.803 |
| CTACAAGGACCAGATTCTTAAAGGGACCAC | -0.799 |
| GCACAGGTCCTACTCACACTCAAGGCAAGA | -1.38 |
| TTGCACTCATACTTGAAGACATTCCAAGAA | -1.27 |
| GGACTTTGGTGTCTGACAGATAAGATTTGG | 2.62 |
| TCGGAAGACGCACCTCTGCATACTTCCTGT | -1.24 |
| GAGGAGTGAGAACAGACAAAATTAAGTGAT | -0.842 |
| GTGGTAGGACAGGGCCCTTCACTATTTTCA | -1.34 |
| GTTCTCTGGGCTTTTTGATCTTGTCACATT | 1.99 |
| GCAGAGTCCCAAGCATCTCTGAGCAGTGAA | -1.38 |
| CATGAAGGTCTCCTTGACTTCAAAGGCATT | -1 |
| CATTTTTTCAAACACCTGGGTCTGACCTCT | 4.84 |
| ACATGGGCGTCACCAACCAGCCCTCGAGTG | 3.36 |
| AGGCTGGGGGCAGAGTTCACCCCATTTTGT | 3.24 |
| TTTGCATTCTTACCCAAGCCCCAAATCTAG | 3.06 |
| CAAACAGCGCTTATCTGGAAACTATTCCTT | -1.1 |
| TTGTGATACACCTTGCCTGGCTACCTCTTA | -0.56 |
| GAGAAGCCTAAGCAGGGCTAGACTTTAACC | 4.91 |
| GTGATCAAACAAAAGGGACAAAGGTGAGTG | 2.67 |
| TGAGGGTTAAAGGAGATAATGGGTGTAAGA | 0.874 |
| GCATCTGAGCAGATGTAAACATCATTCACG | -1.25 |

| Sequence | binding signal (log2 normalized intensity) |
| --- | --- |
| TTTGTTTGTGTAAGTGTGGGTTTAAGTAAG | 1.69 |
| ACCCTGTGATGACCCCATACTTCAGCAATT | 2.21 |
| CTGCTTTCAGAGATGATAAGCCCTGAGTAG | -1.14 |
| CGGCTGTCAAATCACTGAAGCGACCCCTCG | 3.5 |
| GCAGGGTCATAGCTTTATCTCTCCCCCACC | 4.32 |
| GATATGCGGCTGCAAATTCTGCATTTTTCT | -1.17 |
| GCCGGGAGCAGGGAGCGAGACGCTGAGCTT | -1.4 |
| AGGAGGAGGTTCCTGGAACTCTGACCTTTG | 6.98 |
| GGCTGATAGGCAGAAGGGACTAGCCTTATC | -1.39 |
| TAAACTTTTGATTGCTTAGGCTCTTGTTAT | 0.612 |
| TGTGTTACGTCTGGTTTCTTATCTTTCTCA | 1.76 |
| TTCTCTGGCAAATATCAGCATGGTATGTGG | 0.931 |
| CTTGAGGCTCCGATAAACCCAGGCAATGAC | -1.16 |
| GCTGTCACCTTTACCCCCACTCTCCGCTGG | 3.71 |
| GGACTGGAAGGGAGAGATAAGAAAAACTGA | -1.31 |
| CCGAGGTCTGATAAGCACCCTGCTCCAGCC | -1.35 |
| AGGTTGGCTAAAGATAACCTAGAAAGGAGA | -1.31 |
| GGTCCAGAGTTCACTGCAGGCTGGGGGCAG | 1.8 |
| TCTGCATACCAGGTAAGTGACATGCTTGCT | -1.41 |
| GCCATGAGTTGGGGACAAAGTTCAAGGTCC | 6.42 |
| GGAAAGGCATACGTGCTTAATCCTGGTGCA | -0.941 |
